Data reported in the supplement of paper PMC3724861.
The list shows a part of the results.

System: T1, Caupolican (Caup) homeodomain DNA-binding domain
T1 sequence: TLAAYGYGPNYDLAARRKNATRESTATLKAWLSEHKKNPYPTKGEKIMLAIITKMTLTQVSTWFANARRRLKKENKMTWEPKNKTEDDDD
Experiment: PBM E-score (8-mer, recovered from the published 9-mer minima) (E-score (dimensionless, -0.5 to 0.5)); Drosophila protein; higher = stronger relative binding preference, active = 0.31 or more
Description: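 Protein binding microarray (PBM): in vitro transcribed/translated Caupolican (Caup) homeodomain DNA-binding domain (residues 214-303) applied at 100 nM to a universal 8-mer PBM array (Agilent AMADID 015681). The 8-mer enrichment score (E-score, range -0.5 to 0.5) was computed, and each 9-mer score is the minimum E-score of its two constituent 8-mers. The E-score is the same for a 9-mer and its reverse complement; 0.31 is the stated binding threshold.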

| Sequence | PBM E-score |
| --- | --- |
| AAACGACG | inactive: 0.118 |
| AACCTAGG | inactive: -0.00734 |
| AGCCTTAC | inactive: -0.116 |
| CGTGCTGA | inactive: 0.0459 |
| TACCCCCA | inactive: -0.148 |
| TCATAGCA | inactive: 0.0566 |
| CACCCAAG | inactive: -0.0714 |
| GAGAACTA | inactive: 0.122 |
| CAAGATCC | inactive: 0.05 |
| CTGGAGGA | inactive: -0.11 |
| CTTGAATC | inactive: 0.0525 |
| CCGACGAG | inactive: -0.0411 |
| CGGGGCAG | inactive: -0.227 |
| TGCGGTAA | ≥ 0.0689 |
| CCTATGCC | inactive: -0.139 |
| CACGGCCA | inactive: -0.136 |
| CCAGCAAG | inactive: -0.0738 |
| GCCAACAA | inactive: 0.0786 |
| GGAGGGGA | inactive: -0.175 |
| GACTAACA | inactive: 0.237 |
| CCTCTGTA | inactive: 0.0767 |
| AGCAGACC | inactive: -0.0693 |
| AAGTCGTG | inactive: 0.0196 |
| ACCGGTCC | inactive: -0.204 |

| Sequence | PBM E-score |
| --- | --- |
| CGGTCACA | inactive: -0.0463 |
| AATAGTGT | inactive: 0.138 |
| ACAAAACG | inactive: 0.114 |
| GAGGTAGC | inactive: -0.132 |
| CATGGCAG | inactive: 0.0157 |
| AGCGCTGA | inactive: -0.12 |
| TATTGAAA | inactive: 0.117 |
| GCTGATCA | inactive: 0.0205 |
| ATTGCCCG | inactive: -0.0341 |
| ATTCTTGA | inactive: 0.0712 |
| ATGATCAA | inactive: 0.209 |
| GGTCCTAC | inactive: -0.147 |
| CCGGTTAC | inactive: -0.00632 |
| ATCAACCA | inactive: 0.102 |
| CCGAGCCG | inactive: -0.227 |
| AGAGCCGC | inactive: -0.149 |
| ACGAAGCT | inactive: -0.0502 |
| ACATTGGA | inactive: 0.194 |
| ATGTAGCC | inactive: 0.145 |
| ATTTAATG | inactive: 0.14 |
| ACGGGTCG | inactive: -0.0337 |
| ATATCACC | ≥ 0.208 |
| TGAAGGAA | inactive: -0.0592 |
| CGCGCCAA | inactive: -0.18 |

| Sequence | PBM E-score |
| --- | --- |
| CCGTTCTA | inactive: -0.0731 |
| CGCATCAG | inactive: -0.0504 |
| CCGCAACA | inactive: 0.0823 |
| GTCTCTTA | inactive: 0.0121 |
| CGCATTCA | inactive: 0.0169 |
| AATGCTAC | inactive: 0.122 |
| CTAGTGGA | inactive: -0.135 |
| ATGACTGA | inactive: 0.0464 |
| GAACCGCA | inactive: -0.0919 |
| AACCTAGA | inactive: -0.0202 |
| AAGCAACG | inactive: -0.0274 |
| ACATGTCT | active: 0.417 |
| ATAGCGAC | inactive: 0.169 |
| AAAGTGAG | inactive: -0.0278 |
| CGCAGCGC | inactive: -0.212 |
| ATTCGTCC | ≥ 0.0709 |
| ATATACGA | inactive: 0.203 |
| ACGAAACT | inactive: 0.0918 |
| GCGCCCAC | inactive: -0.269 |
| AGAGGGCA | inactive: -0.191 |
| GCCATCCA | inactive: -0.111 |
| CGTGTGAC | inactive: 0.115 |
| CCGGAGAA | inactive: -0.128 |
| ATCTAGTA | inactive: 0.24 |

| Sequence | PBM E-score |
| --- | --- |
| GTCCGTAA | inactive: 0.126 |
| GCTGTTCC | inactive: -0.0241 |
| ATGCTATG | inactive: 0.176 |
| AAGTTGGC | inactive: -0.0747 |
| ATCAGGGA | ≥ 0.0111 |
| CCGGTACG | inactive: -0.144 |
| CTTCCACC | inactive: -0.121 |
| AGGAGTAA | inactive: 0.0605 |
| GAGCTTAA | inactive: -0.126 |
| ACTTATTA | inactive: 0.125 |
| CATAAGCG | inactive: -0.057 |
| ACCAGTTC | inactive: -0.0567 |
| CGAATAGA | inactive: 0.0132 |
| CCTTGGCG | inactive: -0.248 |
| GCACTCGA | inactive: -0.0474 |
| TCTCCAAA | inactive: -0.00938 |
| CGCTATCC | inactive: -0.0633 |
| AGGTCTAC | inactive: 0.00555 |
| GTATATTA | inactive: 0.3 |
| ACTCATTC | inactive: 0.0831 |
| AAGTGCTG | inactive: 0.0544 |
| TGATAGAA | inactive: 0.109 |
| AATGTTGA | inactive: 0.17 |
| GATTCTTA | inactive: 0.0296 |

| Sequence | PBM E-score |
| --- | --- |
| AAAGGCTT | inactive: -0.0526 |
| CCCCTTAG | inactive: -0.208 |
| ACTAGTCG | inactive: 0.0716 |
| CGATTGCA | inactive: 0.0296 |
| ACTCTAAG | inactive: -0.0822 |
| ATTCGTGC | inactive: 0.0245 |
| AATTCTGG | inactive: 0.00497 |
| CATCGAAG | inactive: -0.0314 |
| GATTCGTA | inactive: 0.061 |
| AACAACCC | inactive: 0.247 |
| CTGTCCTA | inactive: 0.0467 |
| ATCGGGAC | inactive: -0.0269 |
| CGTCTCCA | inactive: -0.141 |
| ACAAATAC | inactive: 0.24 |
| CAGCACCG | inactive: -0.134 |
| AGGAGCTA | inactive: -0.0695 |
| AGTCCAGA | inactive: -0.0265 |
| CGGAGATA | inactive: -0.0704 |
| ATCCCGTA | inactive: 0.0864 |
| AAGGGATC | inactive: -0.0319 |
| GACTGCAC | inactive: -0.0366 |
| ACGACTTA | inactive: -0.0113 |
| GGTCACAC | inactive: -0.0544 |
| CCGAGTAA | inactive: 0.0722 |

| Sequence | PBM E-score |
| --- | --- |
| CTGAAGAC | inactive: -0.0545 |
| CTACCCTA | inactive: -0.102 |
| TCCTCTAA | inactive: -0.0475 |
| TAGGGTGA | inactive: -0.0507 |
| CCAGACAA | inactive: 0.0491 |
| TAACCCGA | inactive: 0.00428 |
| TACTACGA | ≥ 0.145 |
| GGCTCGTA | inactive: 0.0794 |
| AACCCTAC | inactive: -0.00118 |
| ATGGACCC | inactive: -0.0688 |
| ATTATACG | inactive: 0.049 |
| ACGGCCTC | inactive: -0.236 |
| ACTTGCTG | inactive: 0.0302 |
| TCCGCCAA | inactive: -0.188 |
| CTCATTAC | inactive: 0.139 |
| GTTTACAA | active: 0.343 |
| GGCATGCA | inactive: 0.0214 |
| AACAGGGA | ≥ 0.168 |
| CGAATGCA | ≥ 0.102 |
| AGGAGCAC | inactive: -0.0862 |
| CATGTGTA | inactive: 0.308 |
| AGGCCAAG | inactive: -0.144 |
| AATAAACG | inactive: 0.142 |
